# Data as given in PubChem BioAssay (NCATS).
# This list was built around the results that the source calls inconclusive (neither active nor inactive); the mix of calls is not that of the screen. No potency is given beside an inconclusive call; the fits are too rough. Active and inactive are the calls of the source. Calls follow the shape of the dose curve; as a rule, active = well fitted cell-killing curve with a large enough effect; inconclusive = small, poorly fitted or top-dose-only effect; inactive = no such curve, though single readings can be large or run the other way.
# Assay: qHTS of pediatric cancer cell lines to identify multiple opportunities for drug repurposing: Primary screen for NB1643 cells (AID 1347099); also: nearly all actives have a fitted effect of over 50% in size
# Conditions: NB1643 neuroblastoma viability, CellTiter-Glo luminescence, 48 h; series mostly up to 46 µM; activity change, negative = cytotoxic: at the top concentration
# From the text: Drug repurposing or repositioning has been offered as a strategy for drug development in oncology programs. This approach has special potential for childhood cancers and other rare or orphan diseases, where the expected return on new drug development has been a disincentive to pharmaceuticals. […] In this project we exploit the poly-pharmacology of drugs to discover new indications via phenotypic screening of a panel of 19 well-characterized cell lines derived from solid tumors seen in children and adolescents. The goal is to identify approved drugs with previously unrecognized anticancer properties that has the potential to reveal new mechanisms and biological processes involved in carcinogenesis or drug resistance. We employed a titration-based paradigm (quantitative high-throughput screening or qHTS), where all compounds were tested at multiple concentrations for their effect on cell viability. Concentration-response curves (CRCs) were derived directly from the primary screen, and both potency and efficacy values were used to identify compounds with robust bioactivity profiles. We screened the NIH Chemical Genomics Center (NCGC) Pharmaceutical Collection (NPC) and Mechanism Interrogation Plate (MIPE) small molecule collections of approved and investigational compounds against these cell lines; and measured metabolically active cells after 48 hours of compound treatment as a proxy for cell viability. […] Assay Submitter: Nathalia J. Martinez, National Center for Advancing Translational Sciences, National Institutes of Health, Rockville, MD, USA; email: natalia.martinez@nih.gov Shen, M et al. Quantitative high-throughput phenotypic screening of pediatric cancer cell lines identifies multiple opportunities for drug repurposing. Oncotarget 2017 Dec 19;9(4):4758-4772. PMID 29435139.
# The cells were obtained from University of North Carolina (UNC), Pediatric Preclinical Testing Program (PPT), and Coriell Institute (CI). qHTS cell viability assay: Cells were assayed in growth media at a density of 500-1,000 cells/well. Five microliters of cells were dispensed into 1,536-well, white, solid-bottom, TC-treated plates (Greiner Bio One) using a multidrop dispenser and incubated at 37 degrees C, 5% CO2, under a humidified atmosphere for 5 hours. Twenty-three nanoliters of compounds and controls (neutral control DMSO or positive control bortezomib at final concentration of 2.3 µM) were subsequently transferred by Kalypsys pintool. For primary screens, the MIPE collection was tested at 11-point dilutions (final concentrations range from 0.78 nM to 46 µM) and the NPC collection at 8-point dilutions (final concentrations range from 0.59 nM to 46 µM). Compounds tested in follow-up screens were assayed at 11-point dilutions. Cells were incubated for 48 hours, followed by addition of 3 µL of CellTiter-Glo (Promega). After a 15 min incubation at room temperature, samples were analyzed for luminescence intensity using a ViewLux High-throughput CCD imager equipped with clear filters.
# Potency is read from the fitted curve at half-maximal effect; tags tell the direction and shape of the fitted curve.
SMILES,Potency,"activity change, negative = cytotoxic"
Cc1ccc(C(=O)Nc2ccc(S(=O)(=O)O)c3cc(S(=O)(=O)O)cc(S(=O)(=O)O)c23)cc1NC(=O)c1cccc(NC(=O)Nc2cccc(C(=O)Nc3cc(C(=O)Nc4ccc(S(=O)(=O)O)c5cc(S(=O)(=O)O)cc(S(=O)(=O)O)c45)ccc3C)c2)c1,"inconclusive [cytotoxic, partial curve]",–
Cc1ccc(N)cc1O,"inconclusive [cytotoxic, single point]",–
CC(C)[C@H](CO)Nc1nc(Nc2ccc(C(=O)O)c(Cl)c2)c2ncn(C(C)C)c2n1,"inconclusive [cytotoxic, single point]",–
CC(=O)O[C@]1(C(C)=O)CC[C@H]2[C@@H]3C=C(C)C4=CC(=O)CC[C@]4(C)[C@@H]3CC[C@@]21C,active: 2.64 µM,–
O=C1CCCC2=C1C(c1[nH]ncc1Cl)N=C(Nc1nc3ccccc3o1)N2 (stereo not given),"inconclusive [cytotoxic, single point]",–
Cc1ccnc2c1NC(=O)c1cccnc1N2C1CC1,"inconclusive [cytotoxic, single point]",–
c1ccc2[nH]c(-c3cscn3)nc2c1,inactive,–
CC[C@]1(O)C[C@@H]2CN(CCc3c([nH]c4ccccc34)[C@@](C(=O)OC)(c3cc4c(cc3OC)N(C=O)[C@@H]3C45CCN4CC=C[C@](CC)([C@H]45)[C@@H](OC(C)=O)[C@]3(O)C(=O)OC)C2)C1 (stereo not given in full),"inconclusive [cytotoxic, full curve, poor fit]",–
CC(O)=C(C#N)C(=O)Nc1ccc(C(F)(F)F)cc1,active: 23.5 µM,–
CCC(C)SSc1ncc[nH]1 (stereo not given),"inconclusive [cytotoxic, single point]",–
CCOc1ccc(Cc2cc([C@@H]3O[C@H](CO)[C@@H](O)[C@H](O)[C@@H]3O)ccc2Cl)cc1,–,inactive: -21.6%
Cc1ccccc1C(C(=O)NC1CCCC1)N(C(=O)Cn1cnc2ccccc21)c1cccc(F)c1 (stereo not given),"inconclusive [cytotoxic, partial curve]",–
O=C(Nc1ccc(F)c(C(F)(F)F)c1)Nc1nnc(-c2ccncc2)s1,"inconclusive [cytotoxic, full curve]",–
COc1cc2nc(N3CCCN(C)CC3)nc(NC3CCN(Cc4ccccc4)CC3)c2cc1OC,active: 9.35 µM,–
CCOC(=O)N1CCN([N+]([O-])=NOc2ccc([N+](=O)[O-])cc2[N+](=O)[O-])CC1,"inconclusive [cytotoxic, single point]",–
OCCC#Cc1nc(-c2ccc(F)cc2)c(-c2ccncc2)n1CCCc1ccccc1,"inconclusive [cytotoxic, partial curve, poor fit]",–
C[C@H](Cc1ccc(O)c(O)c1)[C@@H](C)Cc1ccc(O)c(O)c1,active: 14.8 µM,–
CNC(=O)c1ccc(C)c(-n2c(C)cc(OCc3ccc(F)cc3F)c(Br)c2=O)c1,"inconclusive [cytotoxic, partial curve, poor fit]",–
O=NN(CCCl)C(=O)NCCCl,inactive,–
C#C[C@]1(O)CC[C@H]2[C@@H]3CCc4cc(O)ccc4[C@H]3CC[C@@]21C,"inconclusive [cytotoxic, partial curve]",–

SMILES,Potency,"activity change, negative = cytotoxic"
CON=C(C(=O)N[C@@H]1C(=O)N2C(C(=O)OCOC(=O)C(C)(C)C)=C(C=Cc3scnc3C)CS[C@H]12)c1csc(N)n1,"inconclusive [cytotoxic, single point]",–
CN(C)c1ccc(N=NS(=O)(=O)O)cc1,"inconclusive [cytotoxic, partial curve, poor fit]",–
CC1(C)NC(=O)N(c2ccc([N+](=O)[O-])c(C(F)(F)F)c2)C1=O,"inconclusive [cytotoxic, partial curve]",–
CC1=C(C(=O)O)N2C(=O)[C@@H](NC(=O)[C@H](N)C3=CCC=CC3)[C@H]2SC1,inactive,–
CCN(CC)CCOc1ccc(/C(=C(\Cl)c2ccccc2)c2ccccc2)cc1,"inconclusive [cytotoxic, single point]",–
CC(C)(C(=O)NCC(F)(F)C(F)(F)F)C(=O)N[C@@H]1C(=O)Nc2ccccc2-c2ccccc21,"inconclusive [cytotoxic, full curve]",–
C=C1C(=CC=C2CCC[C@]3(C)[C@@H]([C@H](C)CCCC(C)(C)O)CC[C@@H]23)C[C@@H](O)C[C@@H]1O,active: 2.35 µM,–
O=C(OCc1ccccc1)c1ccccc1,–,inactive: 11.1%
CN(C1CCc2c(c3ccccc3n2CC(=O)O)C1)S(=O)(=O)c1ccc(F)cc1 (stereo not given),active: 1.32 µM,–
CS(=O)c1ccc(-c2nc(-c3ccc(F)cc3)c(-c3ccncc3)[nH]2)cc1 (stereo not given),"inconclusive [cytotoxic, single point]",–
O=C(O)c1cccnc1Nc1cccc(C(F)(F)F)c1,"inconclusive [cytotoxic, single point]",–
Cc1cc(O)c2c(c1)C(=O)c1cc(O)cc(O)c1C2=O,"inconclusive [cytotoxic, partial curve]",–
Cc1csc(NC(=O)c2sc3nc4c(c(C(F)(F)F)c3c2N)CCC4)n1,"inconclusive [cytotoxic, partial curve, poor fit]",–
O=c1c2ccccc2nc2n1CCc1c-2[nH]c2ccccc12,–,inactive: 12.6%
NS(=O)(=O)c1cccc2c1C(=O)c1cccc(O)c1C2=O,active: 1.05 µM,–
CC[C@@H](C)[C@H](NC(=O)[C@H](CC1CCCCC1)NC(=O)c1ccno1)C(=O)N1CCC2(CCc3ccccc32)CC1,active: 23.5 µM,–
COc1cc2nc(-c3ccc(N4CCN(C)CC4)cc3)nc(NCCN3CCOCC3)c2cc1OC,active: 1.87 µM,–
CCCCC1C(=O)N(c2ccccc2)N(c2ccc(O)cc2)C1=O (stereo not given),active: 6.68 µM,–
CC(=O)Oc1cccc2c1C(=O)c1c(OC(C)=O)cc(C(=O)O)cc1C2=O,"inconclusive [cytotoxic, single point]",–
Cc1ccc(F)c(NC(=O)Nc2ccc(-c3cccc4[nH]nc(N)c34)cc2)c1,"inconclusive [cytotoxic, full curve]",–
